Test results from PMC7819943, “Rice protein-binding microarrays: a tool to detect cis-acting elements near promoter regions in rice”.
The list shows a part of the results.

What follows are sequences tested against T1, OsWOX13 (Oryza sativa, UniProt Q5QMM3 1-267) (assay: protein-binding microarray (RPBM); PBS, 2% BSA, 51.3 ng/ul salmon testes DNA, 50 uM zinc acetate, 200 nM TF, 25 C, 1 h; high values mean tight binding). Conditions: protein: recombinant; tags: N-terminal polyhistidine and DsRed monomer fusion (pET32a); label: CyDye5-dUTP incorporated in the synthesized complementary strand; 3' TTTTT single-stranded linker to array surface; dsDNA, one strand shown.
T1 sequence: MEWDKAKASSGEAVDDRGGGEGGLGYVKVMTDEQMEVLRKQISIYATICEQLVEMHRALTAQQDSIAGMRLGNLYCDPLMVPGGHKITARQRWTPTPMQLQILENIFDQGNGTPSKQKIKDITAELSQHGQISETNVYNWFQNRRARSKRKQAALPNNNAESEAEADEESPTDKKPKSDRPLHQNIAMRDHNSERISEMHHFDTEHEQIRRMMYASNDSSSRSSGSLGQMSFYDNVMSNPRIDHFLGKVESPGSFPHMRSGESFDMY
In short: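 In PBS with 2% BSA, salmon testes DNA and 50 µM zinc acetate, 200 nM protein was incubated on a custom Agilent array at 25 °C for 1 h and then washed off. The array had been made double-stranded by primer extension with Cy5-dUTP and blocked with 2% BSA. The proteins were transcription factors fused N-terminally to polyhistidine and DsRed, expressed in E. coli BL21-CodonPlus and purified on Ni–NTA. The binding signal is per-feature fluorescence intensity (arbitrary units) from an Axon 4000B scanner.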
With “GGTGGTGTTAACATATGCTTGATTGAGTTTTAATTATTACCGGAGTCACCTAGTGCAG” the binding signal was 19400 fluorescence intensity (a.u.).
“ATAATATATGTAAATTAATTTTAAGCTTTATTGAATTTACCGGAGTCACCTAGTGCAG” was tested, and the binding signal was 18900 fluorescence intensity (a.u.).
With “ACATCCATCACTGAATTTGACCCGTTAGCACTTTCACCATCGGAGTCACCTAGTGCAG” the binding signal was 3640 fluorescence intensity (a.u.).
“TTGGATTGGACCTGACCTGGGAGGCCATGACGGAGTTGGCCGGAGTCACCTAGTGCAG” was tested, and the binding signal was 3600 fluorescence intensity (a.u.).
With “TTTAAGATGTGGCAATTAATTATTTGTCATTCGCTGTCTACGGAGTCACCTAGTGCAG” the binding signal was 8400 fluorescence intensity (a.u.).
“AAGCTAATTGGCATGCTAGTTTTATCGGATCAGGTGAAGGCGGAGTCACCTAGTGCAG” was tested, and the binding signal was 29600 fluorescence intensity (a.u.).
In the case of “ACAGATAGTCTAATCATAGGAGATGCTTAGTCTCGTGGCACGGAGTCACCTAGTGCAG”, the binding signal is reported as 4990 fluorescence intensity (a.u.).
For “AGTTAATCATTTTGAGTTACCTAGCAACAGATTTCAACCTCGGAGTCACCTAGTGCAG”, the binding signal was 4530 fluorescence intensity (a.u.).
“TTCCTAATTGCCAAATAAAATCCTACTTTGAGTTTTGGATCGGAGTCACCTAGTGCAG” was tested, and the binding signal was 24700 fluorescence intensity (a.u.).
“CGTATACTGCTAATTTATAGCTTGATACATGTACTACTAACGGAGTCACCTAGTGCAG” was tested, and the binding signal was 7270 fluorescence intensity (a.u.).
“GACTGAATTTGATCAATGGTTGTAAACAGTTGTAGTGCATCGGAGTCACCTAGTGCAG” was tested, and the binding signal was 3980 fluorescence intensity (a.u.).
With “GTATGATTGATCTTCTACGTCCATTATAATTACCACATTGCGGAGTCACCTAGTGCAG” the binding signal was 52000 fluorescence intensity (a.u.).
For “GATGCCATCTAATTTTAAATGATGATGTGGAGAAGAGAGTCGGAGTCACCTAGTGCAG”, the binding signal was 7100 fluorescence intensity (a.u.).
For “TGCACCTATCATTAATTAATTATACATTTTCCTATATATACGGAGTCACCTAGTGCAG”, the binding signal was 21800 fluorescence intensity (a.u.).
With “ACATGACTCTATAAATCATCATATCATCTTTGTGTAGGCCCGGAGTCACCTAGTGCAG” the binding signal was 5290 fluorescence intensity (a.u.).
For “TGAAATTAATGGACATCCTCAAATGATAACAATCCTTTCCCGGAGTCACCTAGTGCAG”, the binding signal was 12400 fluorescence intensity (a.u.).
In the case of “CTGTTAGATTGGATAAGATAGAGTTTGTTAGGTTGTTAGCCGGAGTCACCTAGTGCAG”, the binding signal is reported as 31000 fluorescence intensity (a.u.).
“TAAAAGGAGAGTCAATCAAACAAAGTTAATAGAACAAGGTCGGAGTCACCTAGTGCAG” was tested, and the binding signal was 5080 fluorescence intensity (a.u.).
In the case of “TAATTAATTAAGTATTAGTTAAAGATAATTGAAAAGATGGCGGAGTCACCTAGTGCAG”, the binding signal is reported as 47100 fluorescence intensity (a.u.).
For “TGCTAACTGACGTCTGAGGTGGCTCGTGTGCAGTCGTCCACGGAGTCACCTAGTGCAG”, the binding signal was 4560 fluorescence intensity (a.u.).
With “CCAATTAATCAGGAGTCAATGACTCGCCTCATTTTACCTTCGGAGTCACCTAGTGCAG” the binding signal was 13000 fluorescence intensity (a.u.).
With “TTCTTTCCGTGATTGGGGCTCGATGCGATGTAGTCTAGTGCGGAGTCACCTAGTGCAG” the binding signal was 22200 fluorescence intensity (a.u.).
For “TGAGCTATCAGTCATGATTGCAGCCAACATGTAATTGTAACGGAGTCACCTAGTGCAG”, the binding signal was 11800 fluorescence intensity (a.u.).
“ACTGTGACACATGATGAACTGTTTATTTTGCATGATCTATCGGAGTCACCTAGTGCAG” was tested, and the binding signal was 5480 fluorescence intensity (a.u.).
For “AGGTAAGCATATAATTAGATACAATTAGGAGCAGCGGGAGCGGAGTCACCTAGTGCAG”, the binding signal was 3330 fluorescence intensity (a.u.).
For “TGAAATTGATCTTGTTTATTTCGTTTGGGAGAAACCTGTTCGGAGTCACCTAGTGCAG”, the binding signal was 16700 fluorescence intensity (a.u.).
With “TAGCTAATTTTACTTTCATTGATGCTGTACAGTGTCTTCGCGGAGTCACCTAGTGCAG” the binding signal was 11600 fluorescence intensity (a.u.).
With “CTTCTTACTAATGGGCAAATCATGAAAGAAGTGCGGGAGTCGGAGTCACCTAGTGCAG” the binding signal was 7910 fluorescence intensity (a.u.).
In the case of “TCCGCCTAATCAGAGCCGTTTGATTCTATGCTTTGGGCAACGGAGTCACCTAGTGCAG”, the binding signal is reported as 5590 fluorescence intensity (a.u.).
For “GTTTTGCTATGTGGATTGATCGTTTGCTGTGTTCGTTGGACGGAGTCACCTAGTGCAG”, the binding signal was 3230 fluorescence intensity (a.u.).
“TTGAAAACTTTCAAATCAAGATTTGAAAACTTTCAACTCGCGGAGTCACCTAGTGCAG” was tested, and the binding signal was 6030 fluorescence intensity (a.u.).
“CTGATTACCTCTTGTCTAAACTAACGTCCTCAAGTGGAATCGGAGTCACCTAGTGCAG” was tested, and the binding signal was 17900 fluorescence intensity (a.u.).
With “GTATTATATTATTAATTAATCGCCGTCACCTCGTCGCCATCGGAGTCACCTAGTGCAG” the binding signal was 15700 fluorescence intensity (a.u.).
With “GGCCTCCAATCACCCTTATCGTCAGAGGAACACCGCTGCACGGAGTCACCTAGTGCAG” the binding signal was 11300 fluorescence intensity (a.u.).
With “ATTTCAATCTTAGAATAGATTATGCTTTTCATCTCATTTTCGGAGTCACCTAGTGCAG” the binding signal was 8940 fluorescence intensity (a.u.).
With “TATAGCAAAATTGATAAACTTAAAGTTGTGCCATTGTTTACGGAGTCACCTAGTGCAG” the binding signal was 5280 fluorescence intensity (a.u.).
For “TTTGACTGCACGTCGACTGGTGGATGGATGAGATATTGAGCGGAGTCACCTAGTGCAG”, the binding signal was 9720 fluorescence intensity (a.u.).
With “AAATGTAATTTGTATGATATTGTAGCTAGACTGTTTGGAGCGGAGTCACCTAGTGCAG” the binding signal was 10700 fluorescence intensity (a.u.).
“CCCTATCAATTACCTTCACTATCATATTAATCATTGTAGGCGGAGTCACCTAGTGCAG” was tested, and the binding signal was 24100 fluorescence intensity (a.u.).
With “TAGATAGATAGATAGATATAGTTGGTGTGTTTGACCCTAGCGGAGTCACCTAGTGCAG” the binding signal was 36400 fluorescence intensity (a.u.).
“TTAATTCCATTAATATAATAGATAGATTTCATGGTCTGGGCGGAGTCACCTAGTGCAG” was tested, and the binding signal was 14100 fluorescence intensity (a.u.).
With “GGAATAATGATTAATCGATGACAGTGGCAAAAGCTATCGGCGGAGTCACCTAGTGCAG” the binding signal was 22400 fluorescence intensity (a.u.).
